The campaign covered roughly 310,000 compounds. About 14,000 (4.5%) showed an effect of 50% or more. Effects have a minus sign here. The list shows a part of the results.
target: human ether-à-go-go-related gene (hERG) potassium channel (human, UniProt Q12809); assay: primary screen, population patch clamp on CHO cells stably expressing hERG
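Also: peak tail current of the secondary pulse compared with the same well before compound.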

human ether-à-go-go-related gene (hERG) potassium channel, sequence (Q12809 whole entry, looked up): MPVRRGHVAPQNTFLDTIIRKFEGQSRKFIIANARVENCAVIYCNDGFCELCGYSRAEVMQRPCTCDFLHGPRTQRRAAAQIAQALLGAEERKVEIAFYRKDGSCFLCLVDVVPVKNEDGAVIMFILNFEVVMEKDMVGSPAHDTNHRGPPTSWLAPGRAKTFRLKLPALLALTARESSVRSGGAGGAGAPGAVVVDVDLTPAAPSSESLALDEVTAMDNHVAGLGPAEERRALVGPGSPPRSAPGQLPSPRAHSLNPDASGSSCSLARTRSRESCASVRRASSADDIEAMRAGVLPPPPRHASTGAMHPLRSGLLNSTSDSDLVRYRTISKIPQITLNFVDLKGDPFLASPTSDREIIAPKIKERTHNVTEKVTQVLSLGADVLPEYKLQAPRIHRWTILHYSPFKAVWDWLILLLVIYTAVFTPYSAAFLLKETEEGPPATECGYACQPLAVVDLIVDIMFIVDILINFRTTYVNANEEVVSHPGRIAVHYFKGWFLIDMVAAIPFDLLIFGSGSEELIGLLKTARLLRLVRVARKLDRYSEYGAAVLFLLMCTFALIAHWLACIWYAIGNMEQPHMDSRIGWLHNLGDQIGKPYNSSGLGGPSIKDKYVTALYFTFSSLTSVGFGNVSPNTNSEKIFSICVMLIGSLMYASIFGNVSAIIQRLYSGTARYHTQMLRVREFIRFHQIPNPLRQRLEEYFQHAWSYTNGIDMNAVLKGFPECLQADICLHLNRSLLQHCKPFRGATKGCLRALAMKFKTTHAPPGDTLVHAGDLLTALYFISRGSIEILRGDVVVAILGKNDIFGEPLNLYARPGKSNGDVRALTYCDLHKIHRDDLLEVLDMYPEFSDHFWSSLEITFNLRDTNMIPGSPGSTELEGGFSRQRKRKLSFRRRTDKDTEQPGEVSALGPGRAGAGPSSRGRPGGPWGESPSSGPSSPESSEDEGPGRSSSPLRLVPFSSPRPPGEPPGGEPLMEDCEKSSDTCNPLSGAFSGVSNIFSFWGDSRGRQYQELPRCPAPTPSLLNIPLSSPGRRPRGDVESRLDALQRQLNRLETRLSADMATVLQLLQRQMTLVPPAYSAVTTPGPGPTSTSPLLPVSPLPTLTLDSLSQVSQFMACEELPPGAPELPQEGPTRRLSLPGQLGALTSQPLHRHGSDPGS

| SMILES | hERG current change (%, negative = inhibition) at 10uM |
| --- | --- |
| CCCCCCCNC(=O)C1(CC2CC(c3ccc(Cl)cc3)=NO2)CCN(C(=O)Cc2ccc(F)cc2)CC1 (stereo not drawn) | -11% |
| COc1cc(C(=O)NCCOc2cc(C)cc(C)c2)cc(OC)c1OC | -6.59% |
| C=C(C)Cn1c(CCNC(=O)C(C)(C)C)nc2ccccc21 | 10% |
| O=C(Nc1ccc(S(=O)(=O)Nc2nccs2)cc1)c1cccc(N2C(=O)c3ccccc3C2=O)c1 | 6.31% |
| CCCN(CC(=O)Nc1ccccc1C)C(=O)CC(NC(=O)c1ccccc1)c1ccccc1 (stereo not drawn) | -52.7% |
| Cn1nc([N+](=O)[O-])nc1Sc1ccc(Cl)cc1 | -8.08% |
| CCOc1ccc(S(=O)(=O)NCC(c2ccc3c(c2)OCO3)N2CCN(C)CC2)cc1 (stereo not drawn) | -59.2% |
| N#Cc1ccc(S(=O)(=O)N2CCN(CC(=O)Nc3ccccc3C(=O)NC3CC3)CC2)cc1 | -73.9% |
| NC(=O)C1CCN(C(=O)C(=O)c2cn(CC(=O)N3CCCC3)c3ccccc23)CC1 | 6.67% |
| O=C(CSc1ccncc1)Nc1ccc2ccccc2c1 | 12.4% |
| CC#CCN(Cc1ccco1)C(=O)C1CCC(=O)N(Cc2ccccc2F)C1 (stereo not drawn) | -7.03% |
| O=C(Nc1ccccn1)C1CCN(S(=O)(=O)c2ccc3c(c2)OCCO3)CC1 | -11.5% |
| COc1ccc(CNC(=O)Nc2cccc(C)c2)cc1 | 4.23% |
| CCOc1cc(CNCc2ccccc2)ccc1OCc1ccc(Cl)cc1.Cl | -33.1% |
| O=C(NCC1CCCO1)c1cc([N+](=O)[O-])ccc1Cl (stereo not drawn) | 8.54% |
| CCC(=O)Nc1ccc(NC(=O)CSc2nnc(-c3ccco3)n2CC)cc1 | 8.22% |
| CC(=C/c1ccco1)/C=N/N1CCN(c2ccccc2)CC1 | -8.66% |
| COc1ccc(Cl)cc1NC(=O)CN(C)C(=O)c1cn(-c2ccccc2)nc1-c1cccnc1 | -59.9% |
| COc1ccc(S(=O)(=O)Nc2ccccn2)cc1C | 20.1% |
| CCc1ccccc1NC(=O)NC(C)c1ccc2c(c1)OCO2 (stereo not drawn) | 14% |
| CC(C)(C)C(=O)Nc1nnc(SCC(=O)NCc2ccco2)s1 | -12% |
| Cc1ccc(C(=O)Nc2ccc3c(c2)C(=O)N(CC2CCCO2)C3=O)cc1 (stereo not drawn) | 12.4% |
| COc1ccc(N2CCN(CC(=O)NCc3ccc(Cl)cc3)CC2)cc1 | -55.7% |
| CCN(CC(=O)Nc1c(F)cccc1F)C(=O)CCSc1ccc(C)cc1 | -19% |
| O=C(O)[C@]1(S(=O)(=O)c2ccccc2)C[C@@H]2ON=C(c3cccc(Br)c3)[C@@H]2C1 | -2.55% |
| CCOc1ccccc1NC(=O)C(C)CC (stereo not drawn) | -6.76% |
| COc1ccc(NC(=O)C2C3C=CC4(O3)C2C(=O)N(CCN2CCCCC2)C4C(=O)NC2CCCCC2)cc1 (stereo not drawn) | 9.9% |

| SMILES | hERG current change (%, negative = inhibition) at 10uM |
| --- | --- |
| CC12CN(C(=O)c3ccco3)CC(c3ccccc3)(CN(C(=O)c3ccco3)C1)C2=O | -9.76% |
| CCOC(CCNC(=O)c1cc2c(=O)[nH]c3ccccc3c2s1)OCC | 5.3% |
| CCCCn1c(SCC(=O)N2CCC(C)CC2)nc2cc(S(N)(=O)=O)ccc21 | -30.2% |
| CC(CN1CCC(n2nccc2NC(=O)C2CCCC2)CC1)c1ccccc1 (stereo not drawn) | -24% |
| CCC(C(=O)OCC(=O)c1c(N)n(CC(C)C)c(=O)n(C)c1=O)c1ccccc1 (stereo not drawn) | -2.13% |
| O=C(O)CCC(CNS(=O)(=O)c1ccccc1)C(F)(F)F (stereo not drawn) | 21.7% |
| CCN(C(=O)COC(=O)C1CCN(S(=O)(=O)c2ccc(C)c(C)c2)CC1)C1CCCCC1 | -10.4% |
| CCC1CN(C(=O)NCc2cccc(OC)c2)c2cc(Cl)ccc2O1 (stereo not drawn) | 10.4% |
| Cc1ccc(S(=O)(=O)N2CCN(c3cnn(C)c(=O)c3Cl)CC2)cc1 | -6.23% |
| CCOC(=O)c1c(NS(=O)(=O)c2ccccc2)n(CCCOC)c2nc3ccccc3nc12 | 1.43% |
| CC(C)CNC(=O)CSc1ccc(Cl)cc1 | -3.84% |
| CCC(C(=O)NC1CCCC1)N(C(=O)Cn1nnc(-c2ccc(C)o2)n1)c1cnc2ccccc2c1 (stereo not drawn) | 5.57% |
| Cc1cccc(OCC(=O)N2CCN(c3nnc(-c4ccccc4)c4ccccc34)CC2)c1 | -69.7% |
| COc1ccc(-n2c(=O)n(Cc3ccccc3)c(=O)c3[nH]cnc32)cc1 | -17.1% |
| O=C(NCc1ccco1)c1cnc2ccccn2c1=O | -3.03% |
| COc1cccc(/C=C2\SC(N3CCCC(C)C3)=NC2=O)c1OC (stereo not drawn) | 5.94% |
| CC(=O)Nc1cccc(OCC(O)Cn2cnc3ccccc32)c1 (stereo not drawn) | 25.3% |
| CCOC(=O)N1CCN(C(=O)CCn2nc(-c3ccccc3)ccc2=O)CC1 | -42.8% |
| CCOC(=O)CN1C(=O)C(O)(c2c(C)[nH]c3ccccc23)c2ccccc21 (stereo not drawn) | -1.32% |
| CCOc1ccc(C(F)(F)F)cc1NC(C)=O | 3.6% |
| CC(C)Cc1oc(C(=O)O)cc1CN1CCOCC1.Cl | 12.3% |
| CCSc1cc(C2C(C#N)=C(N)OC(C)=C2C(=O)OC)c(C)o1 (stereo not drawn) | 4.3% |
| Cc1ccc(C(=O)OCC(=O)N2CCCC2)cc1 | -2.99% |
| NC(=O)c1nsc(C(=O)N(c2ccc3c(c2)OCO3)C(C(=O)NCC2CCCO2)c2ccc(F)cc2)c1N (stereo not drawn) | -8.25% |
| CN([C@@H](Cc1ccc(OS(=O)(=O)c2cccc3cnccc23)cc1)C(=O)N1CCN(c2ccccc2)CC1)S(=O)(=O)c1cccc2cnccc12 | -2.74% |
| O=C(NC1CC1)c1ccc(CS(=O)c2ccccc2)o1 (stereo not drawn) | -2.49% |
| Cn1nnnc1SCC(=O)NCc1cc([N+](=O)[O-])ccc1O | 31.9% |

— PMC4336329 (PLoS ONE, 2015)
